Assay results as given in PubChem BioAssay AID504466 (National Center for Advancing Translational Sciences (NCATS), 2011).
The campaign covered roughly 330,000 compounds. About 4,200 (1.3%) were called active. This list was built around the results that the source calls inconclusive (neither active nor inactive); the mix of calls is not that of the screen. Calls follow the shape of the dose curve; as a rule, active = well fitted activation curve with a large enough effect; inconclusive = small, poorly fitted or top-dose-only effect; inactive = no such curve, though single readings can be large or run the other way. Where the call is inconclusive, the potency comes from a doubtful curve fit.

assay: qHTS screen for small molecules that induce genotoxicity in human embryonic kidney (HEK293T) cells expressing luciferase-tagged ELG1; conditions: HEK293T ELG1-luciferase reporter, luminescence, 16 h; series mostly up to 46 µM; activity change, positive = activation: at the top concentration; also: nearly all actives have a fitted effect of over 60% in size; as to activity change, positive = activation: % of control where 0% means no effect
Method in brief: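 16 hr compound incubation (37 °C, 5% CO2) of HEK293T cells carrying luciferase-tagged ELG1; luciferase then measured by ONE-Glo luminescence after 30 min at RT.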
Potency is read from the fitted curve at half-maximal effect; tags tell the direction and shape of the fitted curve.

Row | SMILES | Potency | activity change, positive = activation
1 | COc1ccc(C2NC(=O)c3ccccc3N2)cc1OC (stereo unspecified) | inconclusive: 20.6 µM [activator, single point] | 
2 | Cc1cccnc1NC(=O)c1ccc2nc(N)sc2c1 | inconclusive: 25.9 µM [activator, partial curve, poor fit] | 
3 | Cc1ccc(NC(=O)c2cc3nc(C)cc(C)n3n2)cc1 | active: 1.46 µM | 
4 | CCCC(=O)Nc1nnc(-c2ccco2)s1 | inconclusive: 14.1 µM [activator, single point] | 
5 | CC1(C(=O)NCC2CCCO2)Oc2cccnc2NC1=O (stereo unspecified) |  | inactive: 0.292%
6 | CC(C)NC(=O)c1ccc2c3n(nc2c1)-c1ccccc1CO3 | inconclusive: 0.461 µM [activator, full curve] | 
7 | O=C1NC(=S)S/C1=C\C=C\c1ccc([N+](=O)[O-])o1 | inconclusive: 3.26 µM [activator, partial curve, poor fit] | 
8 | Cc1cc2c(cc1S(=O)(=O)N1CCN(c3cccc(C(F)(F)F)c3)CC1)OCC(=O)N2 |  | inactive: 2.61%
9 | COc1ccc(-c2ccn(-c3cccc(F)n3)n2)cc1 | inconclusive: 2.31 µM [activator, full curve] | 
10 | COc1ccc(COC(=O)c2ccc(C)c(S(=O)(=O)N3CCOCC3)c2)cc1F |  | inactive: -6.51%
11 | CC(=O)c1c(C)[nH]c(C2=NNC(=NC(C)(C)C)SC2)c1C | active: 14.6 µM | 
12 | NC(=O)c1nc(-c2cccs2)nc2c1[nH]c(=O)n2-c1ccc(F)cc1 | inconclusive: 16.4 µM [activator, single point] | 
13 | COc1ccc(NC(=S)Nc2ccc(S(=O)(=O)N3CCOCC3)cc2)c(OC)c1 |  | inactive: 0.584%
14 | CC(=O)c1c(C)[nH]c(C(=O)OCC(=O)NCc2ccc3c(c2)OCO3)c1C |  | inactive: -5.22%
15 | N/C(=N\OC(=O)COc1ccccc1)c1ccccn1 | inconclusive: 20.6 µM [activator, partial curve, poor fit] | 
16 | O=C(N/N=C/C=C\c1ccccc1[N+](=O)[O-])c1ccccn1 | inconclusive: 20.6 µM [activator, partial curve] | 
17 | CCOc1ccc(S(=O)(=O)N2CCCC(C(=O)NCc3cccnc3)C2)cc1 (stereo unspecified) |  | inactive: -7.81%
18 | [N-]=[N+]=CC(=O)CC(c1ccccc1)N1C(=O)c2ccccc2C1=O (stereo unspecified) | inconclusive: 29.1 µM [activator, partial curve, poor fit] | 

Row | SMILES | Potency | activity change, positive = activation
19 | CCn1cnc2cc(NCc3ccc(C)cc3)ccc21 | active: 8.2 µM | 
20 | O=C(N/N=C\c1ccco1)Nc1cccc(Cl)c1 | inconclusive: 10.3 µM [activator, partial curve] | 
21 | Nc1nc2ccc(C(=O)Nc3ccccc3)cc2s1 | inconclusive: 9.2 µM [activator, single point] | 
22 | O=C1N/C(=N\N=C\c2ccc3ncccc3c2)SC1Cc1ccc(SC(F)F)cc1 (stereo unspecified) | inconclusive: 14.1 µM [activator, partial curve, poor fit] | 
23 | COCc1cc(C)nc2sc(C(=O)Nc3ccc(OC)cc3)c(N)c12 | inconclusive: 18.3 µM [activator, partial curve, poor fit] | 
24 | Cc1[nH][nH]c(=O)c1C(c1c(C)[nH][nH]c1=O)c1cn(Cc2ccc(Cl)c(Cl)c2)c2ccccc12 | inconclusive: 32.6 µM [activator, partial curve, poor fit] | 
25 | CC(=O)c1cccc(CN2CCC(C(=O)Nc3cccc(-c4ccn[nH]4)c3)CC2)c1 |  | inactive: -7.56%
26 | CCOC(=O)N1CCC(N2C(=O)c3ccc(C(=O)NCCOC)cc3C2=O)CC1 |  | inactive: -1.36%
27 | Cc1cc(C)c(S(=O)(=O)NCCSCc2ccco2)c(C)c1 |  | inactive: -2.55%
28 | COc1ccc(/C=C2\SC(=S)N(CCC(=O)Nc3cccc(O)c3)C2=O)cc1 | inconclusive: 29.1 µM [activator, partial curve, poor fit] | 
29 | COc1ccccc1NC(=O)Cn1cnc2c(cnn2-c2ccccc2)c1=O |  | inactive: 2.47%
30 | COc1cc(/C=C/C(=O)NC2CCCCC2)cc(OC)c1OC | inconclusive: 18.3 µM [activator, partial curve, poor fit] | 
31 | COc1ccc(C(=O)Nc2cccnc2)cc1 | inconclusive: 23.1 µM [activator, single point] | 
32 | CC(=O)Nc1sc(N/N=C\c2ccc(O)cc2)nc1-c1cccs1 | inconclusive: 16.4 µM [activator, partial curve, poor fit] | 
33 | O=C(O)c1cccc(N/N=C/c2sc(N3CCOCC3)nc2-c2ccccc2)c1 | active: 14.6 µM | 
34 | O=C(/C=C/Nc1cccc(C(F)(F)F)c1)c1ccco1 | inconclusive: 8.2 µM [activator, partial curve, poor fit] | 
35 | CN(CC1CCCCO1)C(=O)c1cc(COc2ccc(F)cc2Cl)on1 (stereo unspecified) |  | inactive: -1.65%
36 | CC(C)C(=O)N[C@@H]1c2ccccc2CC[C@@H]1O |  | inactive: 0.852%
